# Data published in PubChem BioAssay AID1458 (National Center for Advancing Translational Sciences (NCATS), 2008).
# The whole screen tested about 210,000 compounds, of which about 5,900 (2.8%) were called active. Inconclusive results, whose numbers are uncertain, are shown with a selection of clear calls. Calls come from the whole dose curve; as a rule, active = well fitted activation curve with a large enough effect; inconclusive = small, poorly fitted or top-dose-only effect; inactive = no such curve, though single readings can be large or run the other way. Potencies of inconclusive entries are doubtful fits and often do not repeat.
# Experiment: qHTS Assay for Enhancers of SMN2 Splice Variant Expression; note: nearly all actives have a fitted effect of over 55% in size; for activity change, positive = activation: % of control where 0% means no effect
# Settings: HEK293 SMN2-luciferase splicing reporter, luminescence, 30-36 h; activity change, positive = activation: at 46.1 µM (top of the series)
# Procedure, shortened: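 HEK293 cells carry an SMN2 […]–luciferase reporter in which exon 7 inclusion puts luciferase in frame. Cells were plated 10-12 h before compound addition, then incubated 30-36 h at 37C. ONE-Glo luminescence was read; sodium butyrate at 4.5 mM final served as control.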
# Potency is the fitted concentration of half-maximal effect; tags give direction and shape of the fitted curve.
SMILES,"activity change, positive = activation",Potency
O=C(COc1ncnc2sccc12)Nc1ccc(F)cc1F,inactive: -1.14%,
CNc1nc(C)c(C#N)cc1C(C)=O,,"inconclusive: 0.447 µM [activator, full curve, poor fit]"
CCOC(=O)c1sc(NC(=O)c2ccc(S(=O)(=O)N(C)C)cc2)nc1C,,"inconclusive: 0.199 µM [activator, partial curve]"
CC1(OC(=O)C2CCCC2)C(=O)C=C2C=C(c3ccsc3)N(c3ccc(CO)cc3)C=C2C1=O (stereo unspecified),inactive: -0.995% [at 9.22 µM],
COCCCN1C(=O)c2[nH]nc(-c3ccccc3O)c2C1c1ccc(Cl)cc1 (stereo unspecified),,"inconclusive: 35.5 µM [activator, partial curve, poor fit]"
CCOC(=O)c1ccc(NC(=O)CSc2c3c(nc4cc(Cl)ccc24)CCCC3)cc1,inactive: -1.29%,
COc1ccc(-n2nc(C(=O)N3CCCC(C)C3)c3c4ccccc4n(C)c3c2=O)cc1Cl (stereo unspecified),inactive: 3.11%,
Cc1ccc2nc(-c3ccc(NS(=O)(=O)c4ccccc4)cc3)sc2c1,inactive: 2.75% [at 1.84 µM],
COc1ccc(CNC(=O)CCCN2C(=O)COc3ccc(C)cc32)cc1,inactive: 12%,
COc1ccc(CN(C)CC(=O)Nc2cc(OC)c([N+](=O)[O-])cc2C)c(OC)c1,inactive: -38.2%,
O=c1cc(-c2ccccc2)oc2cccc(O)c12,,"inconclusive: 31.6 µM [activator, single point]"
CC(C)c1cc(C(=O)NCc2ccco2)no1,,"inconclusive: 35.5 µM [activator, single point]"
COc1cccc(-c2nnc(NC(=O)c3cccs3)s2)c1,,active: 17.8 µM
Cc1ccc(NC(=O)c2noc3c2CCCCC3)cc1C,,active: 7.94 µM
c1ccc(Nc2nc3ccccc3o2)cc1,,"inconclusive: 7.08 µM [activator, partial curve]"
COC(=O)c1c(-c2ccccc2)csc1N1C(=O)Nc2ccccc2N1O,,"inconclusive: 28.2 µM [activator, single point]"
COc1ccccc1NC(=O)C1=C(C)Nc2nc(SCc3ccccc3Cl)nn2C1c1ccccn1 (stereo unspecified),inactive: 1.31%,
C[C@@H]1C(=O)NC2=Nc3cccc(Cl)c3CN21,inactive: -26.3%,
Cc1ccccc1C(=O)NC(CC(C)C)C(=O)OCc1cc(=O)n2cc(Br)ccc2n1 (stereo unspecified),,active: 11.2 µM
CC(=O)Nc1ccc(-n2c(CCC(=O)O)ccc2-c2ccc(Br)cc2)cc1,inactive: -0.232%,
CCSc1ccccc1C(=O)NCCCn1ccnc1,inactive: -0.558%,
CCOC(=O)c1cc(-c2ccc(C)o2)n[nH]1,inactive: -11.8%,
CCN(CC)C(=O)N1c2ccccc2C=Cc2ccccc21,,active: 3.98 µM
CCOC(=O)c1c(NC(=O)C2C3C=CC(C3)C2C(=O)O)sc2c1CCC(CC)C2 (stereo unspecified),,"inconclusive: 6.31 µM [activator, single point]"
COc1ccccc1C1=NC(c2ccc(C)cc2)N=C1C (stereo unspecified),,"inconclusive: 14.1 µM [activator, partial curve]"
CC(=O)Nc1cc(C(=O)OCC(=O)c2ccc(C)cc2)ccc1C,,"inconclusive: 11.2 µM [activator, partial curve]"

SMILES,"activity change, positive = activation",Potency
O=C(CN1C(=O)S/C(=C/c2ccc(N3CCOCC3)cc2)C1=O)N1CCOCC1,,"inconclusive: 7.08 µM [activator, partial curve, poor fit]"
Cc1ccc2c3c(cccc13)-c1ccccc1C2=O,,"inconclusive: 35.5 µM [activator, single point]"
CCCCCCCCNc1ncnc2ccccc12,inactive: -99.8%,
Cc1ccc(C(=O)Nc2c(-c3ccccc3)nc3ccccn23)cc1,inactive: -17.3%,
Cc1ccc(C)c(Cn2c3ccccc3c3cnn(CC(=O)NC4CCC(C)CC4)c(=O)c32)c1 (stereo unspecified),inactive: -9.46%,
CCCN(CCC)C(=O)Cn1c(=O)n(-c2ccc(C)c(C)c2)c(=O)c2c3c(sc21)CCCCC3,inactive: 0.629%,
O=C(Nc1nnc(C(F)(F)F)s1)c1ccc(Br)s1,,"inconclusive: 8.91 µM [activator, partial curve, poor fit]"
CN=C(Cc1ccccc1)C1=C(O)CC(C)(C)CC1=O,inactive: -6.61%,
COc1ccccc1NC(=O)CCn1nc(-c2ccccc2OC)c2c(C)cc(C)nc21,inactive: -11.8%,
COc1ccc2nc(SCC(=O)Nc3ccc4c(c3)OCCO4)[nH]c2c1,inactive: -13%,
CCOC(=O)N1CCN(Cc2cccs2)CC1,,"inconclusive: 0.0224 µM [activator, full curve]"
C=CCc1cccc(C=Nc2cccn3cc(-c4ccccc4)nc23)c1O,,active: 25.1 µM
O=C(C1CCC1)N1CCc2cc(S(=O)(=O)N3CCCCC3)ccc21,,"inconclusive: 0.501 µM [activator, full curve, poor fit]"
COc1c(N)c2ccccc2[nH]c1=O,,"inconclusive: 14.1 µM [activator, single point]"
O=C1C(C=NCCN2CCOCC2)=C(O)c2ccccc21,,"inconclusive: 35.5 µM [activator, single point]"
O=C(O)c1cccc(CSc2nnc(COc3ccccc3)o2)c1,,"inconclusive: 0.251 µM [activator, full curve, poor fit]"
COc1ccc(OC)c(-c2csc(NC(=O)C3COc4ccccc4O3)n2)c1 (stereo unspecified),inactive: -15.7%,
CCc1nnc(NC(=O)c2ccc(S(=O)(=O)N(CC(C)C)CC(C)C)cc2)o1,inactive: -56.1%,
CCN(CC)c1ccc2cc(C=O)c(=O)oc2c1,inactive: -2.76%,
CCOC(=O)N1CCC(NC(=O)c2cc3c(-c4ccc(OC)c(OC)c4)nn(C)c3s2)CC1,,"inconclusive: 35.5 µM [activator, partial curve, poor fit]"
Cc1c(NC(=O)Nc2ccc(Br)cc2F)sc2nc3n(c(=O)c12)CCC(C)CC3 (stereo unspecified),inactive: -4.9%,
Nc1cc(S(=O)(=O)O)ccc1O,inactive: 0.164%,
Cc1ccnc(NC(=O)CCCc2ccccc2)c1,,"inconclusive: 35.5 µM [activator, single point]"
COc1cc2nc(SCC(=O)Nc3c(C)cc(C)cc3C)n3nc(CCn4c(C)nc5ccccc54)nc3c2cc1OC,inactive: -6.81%,
COc1ccc(CC(=O)n2nc(-c3ccc(Cl)cc3)nc2NCc2ccco2)cc1,,"inconclusive: 12.6 µM [activator, single point]"
COC(=O)C1=C(C)N(c2ccc(C(=O)OC)cc2)C(=O)C1,,"inconclusive: 1 µM [activator, partial curve, poor fit]"

SMILES,"activity change, positive = activation",Potency
CCc1nc(SCC(=O)Nc2cccc(C(F)(F)F)c2)c2c(=O)n(C)c(=O)n(C)c2n1,inactive: -32.3%,
COc1ccc2[nH]c(=O)c(CNC3CCCCC3)cc2c1,,"inconclusive: 35.5 µM [activator, single point]"
Cc1nc2ccc(NC(=O)N3CCSCC3)cc2s1,,"inconclusive: 0.0032 µM [activator, full curve, poor fit]"
Cc1ccc(N2C(=O)CSC2c2ccc3c(c2)OCO3)cc1 (stereo unspecified),inactive: -30.1%,
O=C(c1ccccc1)c1ccccc1C(=O)N1CCOCC1,,"inconclusive: 2.24 µM [activator, full curve]"
CCn1c2ccccc2c2cc(NC(=O)N3CCOCC3)ccc21,,"inconclusive: 35.5 µM [activator, single point]"
Cc1c(Cl)cccc1NC(=O)c1noc2c1CCCC2,,"inconclusive: 31.6 µM [activator, single point]"
CN1CCN(NC(=S)NC2CCCC2)CC1,inactive: 1.26%,
N/C(=N\c1nc2ccccc2o1)NC(=O)c1ccc(Cl)cc1,,"inconclusive: 5.62 µM [activator, partial curve]"
C/C(=N\NS(=O)(=O)c1ccc(Br)cc1)c1cccs1,inactive: -8.27%,
CN(C)/C=N/c1nc2nccc(-c3cccc(Cl)c3)n2n1,,"inconclusive: 5.01 µM [activator, partial curve]"
CCCCn1c(=O)n(CC(=O)Nc2ccc(OC)c(Cl)c2)c(=O)c2c1nc(CO)n2CCC,,"inconclusive: 3.16 µM [activator, full curve]"
CCc1ccc(NC(=O)c2ccccc2SC)cc1,,"inconclusive: 14.1 µM [activator, partial curve]"
COc1ccccc1OC(C)C(=O)Nc1c(C(=O)c2ccc(Cl)cc2)oc2ccccc12 (stereo unspecified),,"inconclusive: 5.62 µM [activator, single point]"
O=C(Nc1cccc(F)c1)C1CCN(C(=O)c2ccc(Cl)cc2)CC1,,"inconclusive: 5.62 µM [activator, single point]"
O=C(c1ccc(Cl)cc1)N1CCn2c1nc1ccccc12,,"inconclusive: 22.4 µM [activator, single point]"
COc1cc(CC(=O)NCc2ccccn2)cc(OC)c1OC,,"inconclusive: 0.0056 µM [activator, full curve, poor fit]"
Cn1c(=O)cc(OCCCC(=O)N2CCN(c3ccccn3)CC2)c2ccccc21,,"inconclusive: 0.355 µM [activator, full curve]"
Cc1cc2c(cc1C)NC(CC(=O)Nc1ccccc1)C(=O)N2 (stereo unspecified),,"inconclusive: 22.4 µM [activator, single point]"
COC(=O)C1=C(N)Oc2cc(N(C)C)ccc2C1c1ccccc1OC (stereo unspecified),,"inconclusive: 28.2 µM [activator, single point]"
COC(=O)c1cc2c(ccn2-c2ccc(F)cc2)n1Cc1ccc(OC)cc1,,"inconclusive: 25.1 µM [activator, single point]"
COC(=O)COc1ccc(S(=O)(=O)NCc2cccnc2)cc1,,"inconclusive: 0.0398 µM [activator, full curve, poor fit]"
Cc1ccc(S(=O)(=O)/N=C(/NC(=S)Nc2ccccc2)c2ccccc2)cc1,,"inconclusive: 15.8 µM [activator, single point]"
CSCCC(=O)Nc1ccc(C(C)=O)cc1,,"inconclusive: 5.01 µM [activator, partial curve, poor fit]"
